Measurements reported in PubChem BioAssay AID1645887 (National Center for Advancing Translational Sciences (NCATS), 2021).
Where “and” joins values, the source holds several entries; their conditions need not be identical. Equal entries are not always repeated. In all, about 16,000 compounds went through this assay and about 40 (0.2%) were called active. Not shown: some 1% with an inconclusive outcome. Calls come from the whole dose curve; as a rule, active = well fitted activation curve with a large enough effect; inconclusive = small, poorly fitted or top-dose-only effect, or another doubt; inactive = no such curve, though single readings can be large or run the other way. The list shows a part of the results.

Each molecule was assayed against Rap guanine nucleotide exchange factor 4 (Homo sapiens) (UniProt Q8WZA2) (assay: Validation qHTS for agonist of cAMP-regulated guanine nucleotide exchange factor 4 (EPAC2)). Settings: EPAC2 Rap1B BODIPY-GDP exchange, fluorescence; activation: hits give high values.
UniProt Q8WZA2, sequence (Q8WZA2 whole entry, looked up): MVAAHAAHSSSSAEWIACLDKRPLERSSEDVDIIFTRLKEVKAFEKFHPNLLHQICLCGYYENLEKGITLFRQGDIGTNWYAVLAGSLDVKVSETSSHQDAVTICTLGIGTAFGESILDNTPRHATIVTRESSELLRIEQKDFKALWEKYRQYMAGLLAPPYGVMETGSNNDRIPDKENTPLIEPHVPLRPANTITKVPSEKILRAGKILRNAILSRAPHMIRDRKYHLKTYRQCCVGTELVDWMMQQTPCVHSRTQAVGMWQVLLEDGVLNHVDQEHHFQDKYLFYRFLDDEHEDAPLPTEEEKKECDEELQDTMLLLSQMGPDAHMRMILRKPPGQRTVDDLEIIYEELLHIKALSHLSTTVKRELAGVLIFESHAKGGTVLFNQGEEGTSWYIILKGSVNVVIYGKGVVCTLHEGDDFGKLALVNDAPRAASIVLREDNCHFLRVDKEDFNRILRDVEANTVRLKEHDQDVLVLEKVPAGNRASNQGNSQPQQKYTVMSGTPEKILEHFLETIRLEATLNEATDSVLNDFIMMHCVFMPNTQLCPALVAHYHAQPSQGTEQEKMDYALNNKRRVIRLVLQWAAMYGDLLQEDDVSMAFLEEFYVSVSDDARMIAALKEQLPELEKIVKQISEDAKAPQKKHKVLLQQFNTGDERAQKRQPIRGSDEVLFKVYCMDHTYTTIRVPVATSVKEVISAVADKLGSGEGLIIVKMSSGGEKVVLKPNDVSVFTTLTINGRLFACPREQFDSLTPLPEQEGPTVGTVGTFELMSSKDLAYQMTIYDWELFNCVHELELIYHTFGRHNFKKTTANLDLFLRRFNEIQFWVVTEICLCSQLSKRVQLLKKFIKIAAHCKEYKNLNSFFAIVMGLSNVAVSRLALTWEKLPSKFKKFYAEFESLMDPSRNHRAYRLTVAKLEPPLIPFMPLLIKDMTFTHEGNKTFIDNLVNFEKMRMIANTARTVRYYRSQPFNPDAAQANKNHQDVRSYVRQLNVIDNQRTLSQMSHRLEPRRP
Method in brief: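 Signal normalized against 6.5 mM cAMP as agonist control. Mix of EPAC2 (100 nM), RAP1B-BODIPY-GDP (250 nM) and GDP (50 uM) was read kinetically at 480/540 nm, every 5 min over 30 min, after 5 min room-temperature incubation with compound.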
% is set by controls: 0 for no effect and ±100 for the full control effect.
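Note: exchange makes BODIPY-GDP fluorescence drop when released from Rap1B; series mostly up to about 150 µM.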

activation, inactive:
CC(N)=NCc1cccc(CN)c1 -5.15% and -3.61%
Cc1noc(C)c1C(=O)N1CCC[C@@]2(CCN(C(=O)Nc3ccccc3)C2)C1 7.02%
Cc1cc(CC(=O)O)c(C)n1-c1ccc(Cl)cc1 -0.347%
O=C(c1cc(C(F)(F)F)cc(C(F)(F)F)c1)N1CCC2(CC1)CCN(c1ncccn1)CC2 -10.1%
CCn1nc(C)cc1C(=O)NCC1CCC2(CCN(Cc3ccccc3F)CC2)O1 (stereo unspecified) -14.5%
CC(=O)/C=C\C1[C@]2(C)CCCC(C)(C)C2CC[C@@]1(C)O (stereo partly specified) 1.26%
CC(CN1CCc2nnc(CNC(=O)c3cccc(F)c3)n2CC1)c1ccccc1 (stereo unspecified) -11.2%
COc1ncc2nc(CCc3ccccc3)c(=O)n(Cc3cccs3)c2n1 8.82%
CCOC(CN1CCN(CC(C)C(=O)c2ccccc2)CC1)c1ccccc1 (stereo unspecified) 3.96%
OCC(CO)N[C@H]1C[C@](O)(CO)[C@@H](O)[C@H](O)[C@H]1O 1.34%
C=CCNc1ncnc2ccc(Br)cc12 -25.8%
COc1ncc2nc(-c3cccs3)c(=O)n(CCC#N)c2n1 3.34%
CC(=O)Oc1ccc(C2(c3ccc(OC(C)=O)cc3)Oc3ccccc3NC2=O)cc1 -4.9%
COc1ccc(CNc2ncncc2-c2ccccc2C)c(OC)c1 -18.7%
COc1cccc(-c2ccc(O)c(CNCc3cccc4ccccc34)c2)n1 -5.14%
COc1cccc(C2(CC(=O)N3CCC(c4nc5ccc(F)cc5[nH]4)CC3)CC(=O)N(C)C2=O)c1 (stereo unspecified) -0.914%
COc1ccc(C[C@@H](C)NC[C@H](O)c2ccc(O)c(NC=O)c2)cc1 2.52%
O=C(CCCN1CCC(n2c(=S)[nH]c3ccccc32)CC1)c1ccc(F)cc1 -4.17%
C#CC1(O)CC[C@H]2[C@@H]3CCC4=CCCC[C@@H]4[C@H]3CC[C@@]21C (stereo partly specified) 7.28%
COC(=O)[C@@H]1CCCN1Cc1ccc2c(c1)CN(Cc1ccc3c(c1)CCO3)CCO2 4.1%
CCCCN1CCC[C@@H]1CNC(=O)c1cc(C#N)c2ccccc2c1OC -2.39%
CC[C@H]1c2[nH]c3ccc(C(C)C)cc3c2[C@@H]2CCN3C(=O)CCC[C@H]1[C@H]23 -30.3%
COCc1c(C(=O)NC2CCCC2)cnn1-c1nccc(-c2cccs2)n1 -13%
CC(C)NC(=O)N1CCC2(CC1)CCN(C(=O)c1csnn1)CC2 -8.1%
COc1ccc(-c2nc3cnc(Oc4cccc(Cl)c4)nc3n(C3CC3)c2=O)cc1 -12.2%
O=S(=O)(NCc1nc(N2CCCC2)c2cc(Cl)ccc2n1)c1ccccc1OC(F)(F)F -6.22%
Cc1cc(N(C)C)cc(C)c1C=O -20.6%
O=C1C[C@H]2C=CCc3cccc(c32)CN1Cc1ccc(Br)cc1 -4.69%
OCCCNCc1cc2ccc(F)cc2nc1N1CCN(c2cccc(Cl)c2)CC1 7.21%
CCN(CC)CCNC(=O)c1cc(Br)c(N)cc1OC 15.2%
Cc1ccc(Nc2nccc(N(C)c3ccc4c(C)n(C)nc4c3)n2)cc1S(N)(=O)=O 0.615%
O=C1CCN(CCc2ccccc2)CCN1[C@H](CSc1ccccc1)c1ccccc1 -31.2%
Cc1noc(C)c1C(=O)N1CCC2(CC1)CN(c1ncccn1)C2 -11.9%
COc1ccccc1CNc1ncnc2ccc(-c3ccc(N(C)C)cc3)cc12 -0.179%
CCc1ccc(/C=C2/SC(=S)NC2=O)cc1 -46.9%
CN=C1C=CC(=C(c2ccc(N(C)C)cc2)c2ccc(N(C)C)cc2)C=C1 -16.2%
O=C(NCC1Cc2cccc(-c3cccnc3)c2O1)c1cc(-c2ccccc2)n[nH]1 (stereo unspecified) 3.84%
OC(CCN1CCCCC1)(c1ccccc1)c1ccccc1 8.79% and -3.29%
CC(=O)[C@H]1[C@H](C#N)C[C@H]2[C@@H]3CC=C4C[C@@H](O)CC[C@]4(C)[C@H]3CC[C@@]21C 0.549%
CC(C)[C@H]1COCCS(=O)(=O)N1Cc1ccc(Cl)cc1 -35.8%
CCNc1ncc2nc(-c3cccs3)c(=O)n(Cc3cccs3)c2n1 3.08%
COc1cccc2c1CCC1CC(=O)CC[C@@]21C (stereo partly specified) -17.4%
O=c1[nH]cnc2[nH]cc(CN3CCCCC3)c12 -5.61%
Cn1ccc(C(=O)NCC2CCC3(CCN(Cc4ccc(F)cc4F)CC3)O2)n1 (stereo unspecified) -1.38%
CC(C)(Cc1c[nH]c2ccccc12)NCC(O)COc1ccccc1C#N (stereo unspecified) -4.99%
CCn1c(-c2cccnc2)nc2cc(NC(=O)COC)cc(C(=O)N3CCc4ccccc4C3)c21 -4.51%
O=C1c2cccc(O)c2C(=O)c2c(O)cccc21 -4.41% and -6.74%
COCCn1c(=O)c(-c2ccc(OC)cc2)nc2cnc(OCc3ccccc3)nc21 -3.47%
Cc1ncc2c(c1CNC(=O)c1cncs1)CCN(C(=O)c1csc(-c3cccs3)n1)C2 -2.6%
O=C(c1ccncc1)N1CCC2(CC1)CN(c1ccccn1)C2 -28.7%
CO[C@@]1(NC(=O)CSCC#N)C(=O)N2C(C(=O)O)=C(CSc3nnnn3C)CSC21 (stereo partly specified) 7.69%
COc1ccc(CN2CCCC(c3nc(C)ncc3-c3ccc(F)cc3)C2)c(OC)c1OC (stereo unspecified) 6.72%
O=C(O)C1CN(CCCP(=O)(O)O)CCN1 (stereo unspecified) -7.12%
Cc1noc(C)c1C(=O)N1CCC2(CCCN(c3ccncc3)C2)CC1 -1.09%
CCOC(N)=O -12.2%
Oc1cccc2c(CC(O)c3c[nH]c4ccccc34)ccnc12 (stereo unspecified) -10.7%
CC(CCC(=O)O)C1CCC2C3CC[C@H]4CC(O)CC[C@@]4(C)C3CC[C@@]12C (stereo partly specified) -3.73%
COc1ccccc1-c1cc(NCc2cccs2)ncn1 7.98%
Cc1ccccc1-c1ccc2ncnc(N3CCNCC3)c2c1 2.81%
O=C(NCCNC[C@@H](O)COc1ccc(O)cc1)N1CCOCC1 -14.2%
O=c1cc(-c2ccc(O)c(O)c2)oc2cccc(O)c12 -4.89%
O=C1c2ccccc2C(=O)c2cc(Cn3cc(-c4cccc(C(F)(F)F)c4)nn3)ccc21 -18.6%
CC(=O)O[C@@H]1CC2C(C)(C)C(=O)C=C[C@]2(C)C2CC[C@]3(C)C(=CC[C@H]3C3CO[C@@H](C(C)(C)O)[C@H](O)C3)[C@@]21C (stereo partly specified) -20.7%
C[C@H](NCCc1ccc(O)cc1)[C@H](O)c1ccc(O)cc1 6.1%
N[C@H](C(=O)O)c1ccc(C(=O)O)c(O)c1 -7.35% and -1.36%
COCC(=O)Nc1cc(C(=O)N2CCc3ccccc3C2)c2c(c1)nc(-c1ccncc1)n2C -0.31%
COc1ccccc1CNC(=O)c1cnn(-c2nccc(-c3cccs3)n2)c1C 0.165%
COc1cccc(Nc2ncc3ncc(=O)n(Cc4cccs4)c3n2)c1 24.4%
O=c1c(-c2ccccc2)nc2cnc(Oc3cccc(Cl)c3)nc2n1C[C@H]1CCCO1 -13%
O=C(C1CCCCC1)N1CCOc2ccc(CN3CCN(Cc4ccccn4)CC3)cc2C1 -0.718%
CC(C)NNC(=O)c1ccncc1 -10.8% and 1.97%
Cc1[nH]c2c(C(=O)NCC3Cc4cccc(-c5cccnc5)c4O3)cccc2c1C (stereo unspecified) 5.59%
Cc1ccc(C)c(CN2CCC3(CCC(CNC(=O)c4ccnn4C)O3)CC2)c1 (stereo unspecified) -10.1%
COCCCOc1ccnc(CS(=O)c2nc3ccccc3[nH]2)c1C (stereo unspecified) -4.55%
CCOC(=O)N1CCN(Cc2ccc3c(c2)CN(C(=O)c2ccc(C#CC(C)(C)O)o2)CCO3)CC1 -4.84%
CC(=O)N=c1sc(S(N)(=O)=O)nn1C -7.49% and -3.33%
O=c1cnc2cnc(Oc3ccccc3)nc2n1C[C@H]1CCCO1 -1.55%
Cc1ncc2c(c1CNC(=O)CN1CCCCC1)CCN(C(=O)c1ccc(F)cc1Cl)C2 -1.78%
CCC1OC(=O)C(C)[C@@H](O[C@H]2C[C@@](C)(OC)C(O)C(C)O2)C(C)[C@@H](O[C@@H]2OC(C)CC(N(C)C)C2O)[C@](C)(O)CC(C)/C(=N\OCOCCOC)[C@H](C)C(O)[C@]1(C)O (stereo partly specified) -5.05%
COc1ccccc1CC(=O)NCC1Cc2cc(F)cc(-c3cncnc3)c2O1 (stereo unspecified) -2.32%
COc1ccccc1-c1ccnc(-n2ncc(C(=O)N[C@H]3CCCCNC3=O)c2C2CC2)n1 -7.53%
CC(=O)N1CCC2(CC1)CCN(c1ccc(-c3ccccc3)cc1)CC2 -12.3%
c1cncc(-c2nccc(-n3ccnc3)n2)c1 -10.7%
Cc1ncc2c(c1CNC(=O)c1cncs1)CCN(C(=O)c1ccc(-c3ccccc3)cc1)C2 6.95%
CC1(COc2ccc(CC3SC(=O)NC3=O)cc2)CCCCC1 (stereo unspecified) -31.7% and -7.95%
COc1ccc2c(c1)NC(=O)C2CC(=O)N1CCOc2c(cc(-c3cnc4ccccc4c3)cc2OC)C1 (stereo unspecified) -12.4%
